The list shows a part of the results.
molecular target: T1, MBP-FoxP1dN (Mus musculus, UniProt P58462 326-579); assay: PD-seq (MBP pull-down with sequencing); 20 mM Tris-HCl pH 7.5, 100 mM NaCl, 1.5 mM MgCl2, 0.4 uM protein, 0.1 uM dsDNA library, 30 min, room temperature, amylose pull-down; high values mean tight binding; settings: protein: recombinant; tags: His6-MBP; chain copies: 2; dsDNA, one strand shown
T1 sequence: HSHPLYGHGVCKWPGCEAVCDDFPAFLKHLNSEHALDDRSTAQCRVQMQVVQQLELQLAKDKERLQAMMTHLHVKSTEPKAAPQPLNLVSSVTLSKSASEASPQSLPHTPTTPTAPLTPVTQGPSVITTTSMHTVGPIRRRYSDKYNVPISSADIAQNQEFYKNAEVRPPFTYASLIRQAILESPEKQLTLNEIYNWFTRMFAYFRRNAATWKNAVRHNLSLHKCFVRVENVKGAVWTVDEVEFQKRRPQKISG
Procedure, shortened: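 His6-MBP-tagged mouse FoxP3 or FoxP1 fragment lacking the N-terminus, expressed in E. coli, was mixed at 0.4 µM with 0.1 µM Klenow-filled double-stranded degenerate DNA library. Incubation was 30 min at room temperature in Tris pH 7.5 buffer with NaCl and MgCl2. Complexes were caught on amylose resin and washed three times; DNA was released with proteinase K, PCR-barcoded and Illumina-sequenced. Binding is reads-per-million enrichment, pull-down over input, with replicates pooled.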

Sequence	binding signal
GATGATTGTTCTCCCAGCTGATGAATTCAGGCGCTCGAGTAAACAAATTTTCCTAATCTTTCTGTTCAAGCGCCATCTAC	0.806 RPM ratio (pull-down/input)
GATGATTGTTCTCCCAGCTGATGAATTTCCTAAGTCGAGTAAACAAATTTTCCTAATCTTTCTGTTCAAGCGCCATCTAC	0.871 RPM ratio (pull-down/input)
GATGATTGTTCTCCCAGCTGATGAATTTGACAGATCGAGTAAACAAATTTTCCTAATCTTTCTGTTCAAGCGCCATCTAC	0.874 RPM ratio (pull-down/input)
GATGATTGTTCTCCCAGCTGATGAATTTCTGGCGTCGAGTAAACAAATTTTCCTAATCTTTCTGTTCAAGCGCCATCTAC	0.836 RPM ratio (pull-down/input)
GATGATTGTTCTCCCAGCTGATGAATTTCTCACTTCGAGTAAACAAATTTTCCTAATCTTTCTGTTCAAGCGCCATCTAC	0.885 RPM ratio (pull-down/input)
GATGATTGTTCTCCCAGCTGATGAATTGCAGCGGTCGAGTAAACAAATTTTCCTAATCTTTCTGTTCAAGCGCCATCTAC	1.09 RPM ratio (pull-down/input)
GATGATTGTTCTCCCAGCTGATGAATTCACTTGGTCGAGTAAACAAATTTTCCTAATCTTTCTGTTCAAGCGCCATCTAC	0.812 RPM ratio (pull-down/input)
GATGATTGTTCTCCCAGCTGATGAATTTGTCTTCTCGAGTAAACAAATTTTCCTAATCTTTCTGTTCAAGCGCCATCTAC	1.16 RPM ratio (pull-down/input)
GATGATTGTTCTCCCAGCTGATGAATTTCAACGCTCGAGTAAACAAATTTTCCTAATCTTTCTGTTCAAGCGCCATCTAC	0.861 RPM ratio (pull-down/input)
GATGATTGTTCTCCCAGCTGATGAATTGCTCCTCTCGAGTAAACAAATTTTCCTAATCTTTCTGTTCAAGCGCCATCTAC	0.978 RPM ratio (pull-down/input)
GATGATTGTTCTCCCAGCTGATGAATTCTACCGATCGAGTAAACAAATTTTCCTAATCTTTCTGTTCAAGCGCCATCTAC	0.879 RPM ratio (pull-down/input)
GATGATTGTTCTCCCAGCTGATGAATTTGTGAAATCGAGTAAACAAATTTTCCTAATCTTTCTGTTCAAGCGCCATCTAC	1.24 RPM ratio (pull-down/input)
GATGATTGTTCTCCCAGCTGATGAATTATCGGTATCGAGTAAACAAATTTTCCTAATCTTTCTGTTCAAGCGCCATCTAC	1.02 RPM ratio (pull-down/input)
GATGATTGTTCTCCCAGCTGATGAATTCGTCTTGTCGAGTAAACAAATTTTCCTAATCTTTCTGTTCAAGCGCCATCTAC	0.827 RPM ratio (pull-down/input)
GATGATTGTTCTCCCAGCTGATGAATTGTTCACCTCGAGTAAACAAATTTTCCTAATCTTTCTGTTCAAGCGCCATCTAC	1.02 RPM ratio (pull-down/input)
GATGATTGTTCTCCCAGCTGATGAATTTGGAAGATCGAGTAAACAAATTTTCCTAATCTTTCTGTTCAAGCGCCATCTAC	0.918 RPM ratio (pull-down/input)
GATGATTGTTCTCCCAGCTGATGAATTTTACACTTCGAGTAAACAAATTTTCCTAATCTTTCTGTTCAAGCGCCATCTAC	0.913 RPM ratio (pull-down/input)
GATGATTGTTCTCCCAGCTGATGAATTGCTCTGGTCGAGTAAACAAATTTTCCTAATCTTTCTGTTCAAGCGCCATCTAC	0.872 RPM ratio (pull-down/input)
GATGATTGTTCTCCCAGCTGATGAATTATCTGTATCGAGTAAACAAATTTTCCTAATCTTTCTGTTCAAGCGCCATCTAC	1.1 RPM ratio (pull-down/input)
GATGATTGTTCTCCCAGCTGATGAATTCGGTGTATCGAGTAAACAAATTTTCCTAATCTTTCTGTTCAAGCGCCATCTAC	1.17 RPM ratio (pull-down/input)
GATGATTGTTCTCCCAGCTGATGAATTCTCGATGTCGAGTAAACAAATTTTCCTAATCTTTCTGTTCAAGCGCCATCTAC	0.963 RPM ratio (pull-down/input)

Sequence	binding signal
GATGATTGTTCTCCCAGCTGATGAATTCCTACCATCGAGTAAACAAATTTTCCTAATCTTTCTGTTCAAGCGCCATCTAC	0.912 RPM ratio (pull-down/input)
GATGATTGTTCTCCCAGCTGATGAATTTCAGCGTTCGAGTAAACAAATTTTCCTAATCTTTCTGTTCAAGCGCCATCTAC	0.898 RPM ratio (pull-down/input)
GATGATTGTTCTCCCAGCTGATGAATTTCGGGAATCGAGTAAACAAATTTTCCTAATCTTTCTGTTCAAGCGCCATCTAC	0.902 RPM ratio (pull-down/input)
GATGATTGTTCTCCCAGCTGATGAATTTGCGTCTTCGAGTAAACAAATTTTCCTAATCTTTCTGTTCAAGCGCCATCTAC	1.1 RPM ratio (pull-down/input)
GATGATTGTTCTCCCAGCTGATGAATTGGTCACGTCGAGTAAACAAATTTTCCTAATCTTTCTGTTCAAGCGCCATCTAC	0.919 RPM ratio (pull-down/input)
GATGATTGTTCTCCCAGCTGATGAATTCTCTGTCTCGAGTAAACAAATTTTCCTAATCTTTCTGTTCAAGCGCCATCTAC	0.82 RPM ratio (pull-down/input)
GATGATTGTTCTCCCAGCTGATGAATTATCTGTGTCGAGTAAACAAATTTTCCTAATCTTTCTGTTCAAGCGCCATCTAC	1.03 RPM ratio (pull-down/input)
GATGATTGTTCTCCCAGCTGATGAATTAGCCGACTCGAGTAAACAAATTTTCCTAATCTTTCTGTTCAAGCGCCATCTAC	0.775 RPM ratio (pull-down/input)
GATGATTGTTCTCCCAGCTGATGAATTTACTGGTTCGAGTAAACAAATTTTCCTAATCTTTCTGTTCAAGCGCCATCTAC	1.15 RPM ratio (pull-down/input)
GATGATTGTTCTCCCAGCTGATGAATTAACCCTTTCGAGTAAACAAATTTTCCTAATCTTTCTGTTCAAGCGCCATCTAC	0.869 RPM ratio (pull-down/input)
GATGATTGTTCTCCCAGCTGATGAATTATGTTCTTCGAGTAAACAAATTTTCCTAATCTTTCTGTTCAAGCGCCATCTAC	1.15 RPM ratio (pull-down/input)
GATGATTGTTCTCCCAGCTGATGAATTGTCATCTTCGAGTAAACAAATTTTCCTAATCTTTCTGTTCAAGCGCCATCTAC	1.09 RPM ratio (pull-down/input)
GATGATTGTTCTCCCAGCTGATGAATTGGGAATGTCGAGTAAACAAATTTTCCTAATCTTTCTGTTCAAGCGCCATCTAC	0.87 RPM ratio (pull-down/input)
GATGATTGTTCTCCCAGCTGATGAATTGGTCTCTTCGAGTAAACAAATTTTCCTAATCTTTCTGTTCAAGCGCCATCTAC	0.927 RPM ratio (pull-down/input)
GATGATTGTTCTCCCAGCTGATGAATTGAGGGTCTCGAGTAAACAAATTTTCCTAATCTTTCTGTTCAAGCGCCATCTAC	0.782 RPM ratio (pull-down/input)
GATGATTGTTCTCCCAGCTGATGAATTGTGAGGTTCGAGTAAACAAATTTTCCTAATCTTTCTGTTCAAGCGCCATCTAC	0.924 RPM ratio (pull-down/input)
GATGATTGTTCTCCCAGCTGATGAATTAAATGGGTCGAGTAAACAAATTTTCCTAATCTTTCTGTTCAAGCGCCATCTAC	0.879 RPM ratio (pull-down/input)
GATGATTGTTCTCCCAGCTGATGAATTTTTAACATCGAGTAAACAAATTTTCCTAATCTTTCTGTTCAAGCGCCATCTAC	1.19 RPM ratio (pull-down/input)
GATGATTGTTCTCCCAGCTGATGAATTAGATCAGTCGAGTAAACAAATTTTCCTAATCTTTCTGTTCAAGCGCCATCTAC	0.933 RPM ratio (pull-down/input)
GATGATTGTTCTCCCAGCTGATGAATTCCTCTTCTCGAGTAAACAAATTTTCCTAATCTTTCTGTTCAAGCGCCATCTAC	0.796 RPM ratio (pull-down/input)
GATGATTGTTCTCCCAGCTGATGAATTCTGGTGGTCGAGTAAACAAATTTTCCTAATCTTTCTGTTCAAGCGCCATCTAC	0.809 RPM ratio (pull-down/input)

Sequence	binding signal
GATGATTGTTCTCCCAGCTGATGAATTACACAAGTCGAGTAAACAAATTTTCCTAATCTTTCTGTTCAAGCGCCATCTAC	1.37 RPM ratio (pull-down/input)
GATGATTGTTCTCCCAGCTGATGAATTCATAGTATCGAGTAAACAAATTTTCCTAATCTTTCTGTTCAAGCGCCATCTAC	1.14 RPM ratio (pull-down/input)
GATGATTGTTCTCCCAGCTGATGAATTGGAACGTTCGAGTAAACAAATTTTCCTAATCTTTCTGTTCAAGCGCCATCTAC	0.904 RPM ratio (pull-down/input)
GATGATTGTTCTCCCAGCTGATGAATTGAACTACTCGAGTAAACAAATTTTCCTAATCTTTCTGTTCAAGCGCCATCTAC	0.87 RPM ratio (pull-down/input)
GATGATTGTTCTCCCAGCTGATGAATTGGTCATTTCGAGTAAACAAATTTTCCTAATCTTTCTGTTCAAGCGCCATCTAC	0.96 RPM ratio (pull-down/input)
GATGATTGTTCTCCCAGCTGATGAATTGATTGTTTCGAGTAAACAAATTTTCCTAATCTTTCTGTTCAAGCGCCATCTAC	1.61 RPM ratio (pull-down/input)
GATGATTGTTCTCCCAGCTGATGAATTGCGTACATCGAGTAAACAAATTTTCCTAATCTTTCTGTTCAAGCGCCATCTAC	1.24 RPM ratio (pull-down/input)
GATGATTGTTCTCCCAGCTGATGAATTATTAACTTCGAGTAAACAAATTTTCCTAATCTTTCTGTTCAAGCGCCATCTAC	1.17 RPM ratio (pull-down/input)
GATGATTGTTCTCCCAGCTGATGAATTACGTGATTCGAGTAAACAAATTTTCCTAATCTTTCTGTTCAAGCGCCATCTAC	1.02 RPM ratio (pull-down/input)
GATGATTGTTCTCCCAGCTGATGAATTGATAAGCTCGAGTAAACAAATTTTCCTAATCTTTCTGTTCAAGCGCCATCTAC	1.03 RPM ratio (pull-down/input)
GATGATTGTTCTCCCAGCTGATGAATTTGCCTCGTCGAGTAAACAAATTTTCCTAATCTTTCTGTTCAAGCGCCATCTAC	0.927 RPM ratio (pull-down/input)
GATGATTGTTCTCCCAGCTGATGAATTCGCGGGTTCGAGTAAACAAATTTTCCTAATCTTTCTGTTCAAGCGCCATCTAC	0.811 RPM ratio (pull-down/input)
GATGATTGTTCTCCCAGCTGATGAATTAGCAGCATCGAGTAAACAAATTTTCCTAATCTTTCTGTTCAAGCGCCATCTAC	1.01 RPM ratio (pull-down/input)
GATGATTGTTCTCCCAGCTGATGAATTAACCTGGTCGAGTAAACAAATTTTCCTAATCTTTCTGTTCAAGCGCCATCTAC	0.767 RPM ratio (pull-down/input)
GATGATTGTTCTCCCAGCTGATGAATTAGCCCACTCGAGTAAACAAATTTTCCTAATCTTTCTGTTCAAGCGCCATCTAC	0.892 RPM ratio (pull-down/input)
GATGATTGTTCTCCCAGCTGATGAATTCTATCTCTCGAGTAAACAAATTTTCCTAATCTTTCTGTTCAAGCGCCATCTAC	0.868 RPM ratio (pull-down/input)
GATGATTGTTCTCCCAGCTGATGAATTTCCGGTATCGAGTAAACAAATTTTCCTAATCTTTCTGTTCAAGCGCCATCTAC	0.895 RPM ratio (pull-down/input)
GATGATTGTTCTCCCAGCTGATGAATTGCCGGGTTCGAGTAAACAAATTTTCCTAATCTTTCTGTTCAAGCGCCATCTAC	0.896 RPM ratio (pull-down/input)
GATGATTGTTCTCCCAGCTGATGAATTTGTGCAGTCGAGTAAACAAATTTTCCTAATCTTTCTGTTCAAGCGCCATCTAC	1.1 RPM ratio (pull-down/input)
GATGATTGTTCTCCCAGCTGATGAATTTTTAGACTCGAGTAAACAAATTTTCCTAATCTTTCTGTTCAAGCGCCATCTAC	0.939 RPM ratio (pull-down/input)
GATGATTGTTCTCCCAGCTGATGAATTGCTTTGGTCGAGTAAACAAATTTTCCTAATCTTTCTGTTCAAGCGCCATCTAC	1.07 RPM ratio (pull-down/input)
